Experimental data published in the supplement of paper PMC10126150.
Sequences with one replicate were seen in a single cluster, so their values are uncertain.

Tested on: ATP
Assay: switch fluorescence ratio, 500 uM ATP over buffer (Cy3 cluster intensity, sum of 5 cycles each) (fold (ratio)); higher = stronger signal-on switching upon ATP binding; sequences stand for … in TCGTCGGCAGCGTCAGATGTGTATAAGAGACAGTTTTTTTTTTTTTTTTTTTTTTTTT…TC
Conditions: aptamer strand: ATP DNA aptamer (quencher-CACCTGGGGGAGTATTGCGGAGGAAGG + anchor), 100 nM annealed; ATP concentration: 500 uM; one replicate
In short: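 Cy3-labelled switching-strand clusters on a modified Illumina MiSeq flow-cell were annealed to 100 nM quencher-labelled ATP aptamer and imaged first in selection buffer, then after 15 min with 500 uM ATP at 22 °C. NaOH stripping and re-annealing separated each of five buffer/ATP cycles, and clusters outside 100-1000 RFU were excluded. The fluorescence ratio sums target-cycle Cy3 intensity over buffer-cycle Cy3 intensity per cluster and averages it per switch-domain sequence.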
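Note: ATP exposure 15 min at 22 °C before imaging.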

Row | Sequence | switch fluorescence ratio
1 | TAAACCTGAG | 1.63
2 | TTTATAGATT | 1.04
3 | CGGGGTATCA | 0.955
4 | GAGGCGAAGG | 0.994
5 | TGCTAATCGG | 0.964
6 | TCAGTTGGA | 1.02
7 | CTAGGAGCGA | 1.12
8 | TCATCCGTCA | 2.64
9 | ACCTTGTACC | 1.18
10 | GACTGTGCTA | 1.12
11 | GGGAAGGCAA | 1.12
12 | CCCTTAGAGT | 0.997
13 | CGTCTCAGGT | 1.04
14 | TGGTGGCACA | 0.98
15 | AGTACGGAGG | 0.986
16 | GGAAGTTGGC | 0.965
17 | AACCACTATC | 1.08
18 | AACCGCGTGG | 0.97
19 | ACTACCAGAA | 1.08
20 | AACCTGGTGC | 1.82
21 | AACTGCCGGC | 1.13
22 | CAAAGAAGGT | 0.981
23 | ATATACCGGG | 0.993

Row | Sequence | switch fluorescence ratio
24 | AGCAACAGCT | 1.01
25 | TTAGGGCGT | 0.959
26 | CAGTCTAAG | 0.976
27 | AGACGGACGG | 1.03
28 | CGACTTGCAT | 1.46
29 | ATGTAGCCG | 1.01
30 | TGACGGTCTT | 1
31 | CTTGACTTCA | 1.01
32 | AGTTTGACGC | 0.984
33 | AGACCTTGAA | 0.979
34 | GCATATTTAC | 1.23
35 | TAGCTTGGTC | 0.931
36 | GTTTAAGGTG | 1.15
37 | GAAAGAGTAG | 1.05
38 | CTTGTTGGAG | 0.965
39 | GGGGCTCCCA | 1.2
40 | GGACGGAAGG | 0.979
41 | ATAAATGTGG | 1.01
42 | CGCAGGAAGA | 0.991
43 | GCGAAGTTAC | 1.56
44 | CTTTGGCCAT | 1.04
45 | TTTATTGGA | 1.02
46 | AATCCGGCTC | 1.08

Row | Sequence | switch fluorescence ratio
47 | TCACGGCGTG | 1
48 | CGGAGGTCCC | 1.04
49 | TCAAATGGTC | 1.08
50 | AAAATCCCTG | 1.02
51 | GATGGAATTT | 1.06
52 | ATATTTGGTA | 0.932
53 | TTTTCTGAAA | 1.02
54 | CGCGACTCA | 1.25
55 | GGCGTTGACG | 0.995
56 | CTTTGCCTGT | 0.975
57 | CATATAAAAA | 0.979
58 | GACCCTAGGT | 1.11
59 | TCTTCAGCCT | 0.99
60 | CTATAGATCA | 0.948
61 | CCTTGTACAG | 1.01
62 | CTATGCACGG | 1.07
63 | CGTGTCATAC | 1.57
64 | CGAGCGGTG | 1.01
65 | TTCCAGGGGT | 5.28
66 | TGACCTGGGG | 1.04
67 | CCGGGGTGAT | 1.26
68 | AATTCTGTAT | 0.995
69 | TTGCACCAGC | 1.08

Row | Sequence | switch fluorescence ratio
70 | CCTGCGGAT | 1.5
71 | ATTCGATTCC | 1.07
72 | GTTCCTAAAC | 1.86
73 | GGAGGACTAC | 1.07
74 | TGATTAGGCT | 0.993
75 | AAAATATGC | 0.988
76 | TTCCGATGGC | 1.13
77 | GATCAACTGG | 1.05
78 | AGGGAGAATC | 0.992
79 | AATTGAAGCC | 1.02
80 | GTTGTGTATG | 1.01
81 | GCAACGGGGA | 0.981
82 | CGGTCTCCCG | 1.01
83 | AATAACTTAG | 1.01
84 | CCCGGTTAGG | 1.04
85 | GGCGTTTATT | 1.02
86 | AAAGGATTGG | 1.01
87 | TTCTCCTCG | 1.04
88 | CCCCGATCC | 1.29
89 | GTAAACCCAA | 1.09
90 | CATATTTTTC | 1.02
91 | GTAATATGGA | 1.01
92 | GGTGCCCTGA | 1.04

Row | Sequence | switch fluorescence ratio
93 | CCAGGGGTT | 1.68
94 | CCTCTCCCGG | 2.24
95 | CTGACAAAG | 1.01
96 | ATCTCTCACG | 1.02
97 | TTTCCTTACA | 1.07
98 | GGCTCCGCGC | 5.49
99 | CACACTAGTC | 1.05
100 | TCTCAGTGGT | 1.02
101 | TATATATGCG | 0.975
102 | CAGGACTACT | 1.05
103 | GTAGGAAGGC | 1.15
104 | AAAAGGTTGA | 0.998
105 | TTGAGTCTGC | 1.05
106 | AGGAACTCCC | 1.12
107 | GTAAAATTGA | 0.971
108 | ATTTAAAATA | 1.05
109 | GGCCCAGTCC | 1.02
110 | TGATTTGATA | 1.01
111 | GGGGCATGAT | 1.04
112 | GGATGAAAAG | 0.986
113 | GGGGTGTAAA | 1.04
114 | CGAGCATCGA | 1.08
115 | GTACGGATTG | 0.997

Row | Sequence | switch fluorescence ratio
116 | TTAGATATGT | 1.05
117 | AAATACGTGC | 1.07
118 | CGGGGATAGA | 1.01
119 | GGGGGAGCGC | 0.939
120 | CTGCAATGTG | 3.01
121 | GCTCAATCAA | 1.05
122 | CATGCAGCA | 1
123 | TTCGGAAGAC | 1.14
124 | AAAAACTGT | 0.937
125 | CATAGCGACG | 1.02
126 | AGAACACATA | 1.06
127 | CGACAGGTGA | 1.02
128 | GGTGGAGGTC | 0.989
129 | TGTGATGTGA | 0.963
130 | TGACCTAAGG | 0.993
131 | TAGAATCGGA | 0.952
132 | GGGTGGCGT | 1.02
133 | CGAGGAGATT | 1.01
134 | CCCCCAGGTC | 2.38
135 | ACCATTTCTA | 1
136 | TAGCCCCACC | 1.05
137 | TAAGTAGCT | 1.06
138 | TTTGCGAAA | 1.07

Row | Sequence | switch fluorescence ratio
139 | CAGGAAGTGG | 0.949
140 | AAGGCATCTA | 1.01
141 | TCCTAATTTT | 1.01
142 | CTCAAGAAAC | 1.39
143 | TACTTCGGCG | 1.03
144 | GTGTCAACGA | 0.966
145 | ATCACTATGA | 0.991
146 | GCTGGTAAGG | 0.988
147 | GAGGGTA | 0.949
148 | TTCTTTTCTG | 1.02
149 | TTGACCTCGG | 1.01
150 | GCGAAGGTTT | 1.02
151 | TAGAATTGCC | 0.947
152 | AGGGAAAGAC | 1.1
153 | CTAACTTAAC | 1.09
154 | ATGAGGGATC | 0.919
155 | GAAGTCTCCG | 1.04
156 | ACTTGGGCC | 1.04
157 | ATTCTGGCGG | 1.03
158 | TAAGAACTA | 1.03
